Test results taken from PubChem BioAssay (NCI).
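These data come from cells grown in 96-well plates and exposed to compound for 48 hours at five concentrations. GI50: concentration for 50% inhibition of growth.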 A number of entries come with more than one value. The other results are left out here. The source may hold further records. For part of these data: The tests behind the records often covered other concentration ranges, which the source does not state; a value can be the end of its range. Marks in square brackets tell the records apart. The letters are not those of the source and start again with each entry. For part of these data: The values listed for one entry repeat one measurement in other runs, samples, wells, individuals or studies.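 The concentration for full growth arrest is given as TGI.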

Assays:
Test in all cases: NCI anticancer screen, dose series, 48 h
COLO 205 colon = system: COLO 205 colon
HOP-92 NSCLC = system: HOP-92 NSCLC
UACC-257 melanoma = system: UACC-257 melanoma
HCC-2998 colon = system: HCC-2998 colon
SF-295 CNS = system: SF-295 CNS
PC-3 prostate = system: PC-3 prostate
RPMI-8226 leukemia = system: RPMI-8226 leukemia
NCI/ADR-RES ovarian = system: NCI/ADR-RES ovarian
RXF-631 renal = system: RXF-631 renal
OVCAR-5 ovarian = system: OVCAR-5 ovarian
HCT-116 colon = system: HCT-116 colon
SK-OV-3 ovarian = system: SK-OV-3 ovarian
HCT-15 colon = system: HCT-15 colon
U251 CNS = system: U251 CNS
KM12 colon = system: KM12 colon
TK-10 renal = system: TK-10 renal
UO-31 renal = system: UO-31 renal
BT-549 breast = system: BT-549 breast
SNB-75 CNS = system: SNB-75 CNS
HOP-62 NSCLC = system: HOP-62 NSCLC
786-0 renal = system: 786-0 renal

CON(C)C(=O)N1N=C(c2cc(F)ccc2F)SC1(CCCN)c1ccccc1 (stereo not given)
TGI (COLO 205 colon): 17.8 µM [sample A, 1 test] and 927 nM [sample B, mean of 2 tests]
GI50 (HOP-92 NSCLC): 98.6 nM [sample A, 1 test] and 1.18 µM [sample B, 1 test]
GI50 (UACC-257 melanoma): 480 nM [sample A, 1 test] and < 10 nM [sample B, 1 test]

NCCCn1c2c(c3ccc([N+](=O)[O-])cc3c1=O)C(=O)c1cc(Br)ccc1-2
TGI (HCC-2998 colon): 392 nM and 37.5 nM
TGI (SF-295 CNS): 551 nM and 36.6 nM
GI50 (HOP-92 NSCLC): 1.84 nM and 66.2 nM
TGI (HOP-92 NSCLC): 9.24 nM and 1.92 µM

COc1ccc(/C=C\c2cc(OC)c(OC)c(OC)c2)cc1OC(=O)NCCN(C)C
TGI (PC-3 prostate): 123 nM and > 100 µM
TGI (RPMI-8226 leukemia): 188 nM and 15.3 µM
TGI (SF-295 CNS): 0.915 nM and 66.8 µM
TGI (NCI/ADR-RES ovarian): 0.173 nM and 46.5 µM
TGI (RXF-631 renal): 18.5 nM and 22.9 µM
TGI (OVCAR-5 ovarian): 140 nM and > 100 µM
TGI (HCT-116 colon): 46.4 nM and > 100 µM
TGI (SK-OV-3 ovarian): 858 nM and > 53.6 µM
TGI (HCT-15 colon): 11 nM and > 100 µM
TGI (U251 CNS): 10.2 nM and > 36.9 µM
TGI (KM12 colon): 7.1 nM and > 100 µM

CC(C)(C)c1cc(NC(=O)Cc2ccc(-c3cnc4cc(-c5cnn(CCN6CCOCC6)c5)ccc4n3)cc2)no1
GI50 (HCC-2998 colon): 1.22 µM, 3.58 µM [sample A, 1 test] and 251 nM [sample B, mean of 2 tests]
GI50 (TK-10 renal): 1.22 µM, 807 nM [sample A, 1 test] and 51.5 nM [sample B, mean of 2 tests]
TGI (UO-31 renal): 50 µM [sample A, 1 test] and 1.3 µM [sample B, 1 test]
GI50 (OVCAR-5 ovarian): 1.61 µM, 703 nM [sample A, 1 test] and 101 nM [sample B, mean of 2 tests]
GI50 (BT-549 breast): 959 nM, 1.22 µM [sample A, 1 test] and 94.3 nM [sample B, mean of 2 tests]
GI50 (SNB-75 CNS): 49.9 nM, 480 nM [sample A, 1 test] and 22.1 nM [sample B, mean of 2 tests]
GI50 (HOP-62 NSCLC): 796 nM, 882 nM [sample A, 1 test] and 64.2 nM [sample B, mean of 2 tests]
GI50 (KM12 colon): 12.2 nM, 22.8 nM [sample A, 1 test] and 1.71 nM [sample B, mean of 2 tests]
GI50 (UACC-257 melanoma): 1.23 µM, 2.07 µM [sample A, 1 test] and 142 nM [sample B, mean of 2 tests]

CCc1c(C)c(C#N)c(=S)n(C2OC(COC(C)=O)C(OC(C)=O)C(OC(C)=O)C2OC(C)=O)c1C (stereo not given)
GI50 (PC-3 prostate): > 100 µM [sample A, 1 test] and 9.94 µM [sample B, 1 test]
TGI (HOP-92 NSCLC): > 100 µM [sample A, 1 test] and 9.07 µM [sample B, 1 test]
GI50 (786-0 renal): > 100 µM [sample A, 1 test] and 7.18 µM [sample B, 1 test]
